PubChem BioAssay AID485297 (National Center for Advancing Translational Sciences (NCATS), 2010)
Screen size: about 320,000 compounds; about 9,100 (2.8%) were called active. This list was built around the results that the source calls inconclusive (neither active nor inactive); the mix of calls is not that of the screen. Calls come from the whole dose curve; as a rule, active = well fitted activation curve with a large enough effect; inconclusive = small, poorly fitted or top-dose-only effect; inactive = no such curve, though single readings can be large or run the other way. No potency is given beside an inconclusive call; the fits are too rough.

assay: qHTS Assay for Rab9 Promoter Activators; settings: Huh7 Rab9 promoter-luciferase reporter, luminescence, 24 h; series mostly up to 9.22 µM; activation, negative = inhibition: at the top concentration; note: nearly all actives have a fitted effect of over 60% in size; for activation, negative = inhibition: % of control where 0% means no effect
Outline: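 Luciferase signal after 10 min detection reagent at ambient indicates Rab9 promoter upregulation; stably transfected Huh7 cells were treated 24 h with compound in DMSO at 37 °C, 5% CO2.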
Potency is the fitted concentration of half-maximal effect; tags give direction and shape of the fitted curve.

SMILES	Potency	activation, negative = inhibition
O=C(N/N=C/C(Cl)=C/c1ccccc1)c1ccccc1F	inconclusive [activator, partial curve]	–
Fc1cccc(Cl)c1CN1CCN(c2nc3ccccc3s2)CC1	active: 2.51 µM	–
COC(CSc1nc(N)c2c3c(sc2n1)CN(C)CC3)OC	inconclusive [activator, partial curve, poor fit]	–
CCc1cc2c(=O)n3c(nc2s1)-c1[nH]c2ccc(OC)cc2c1CC3	inconclusive [activator, full curve]	–
O=c1c2c(nc3cc(-c4cccc(Cl)c4)[nH]n13)CCCC2	inconclusive [activator, partial curve, poor fit]	–
CCn1c(C)nc2cc(C(=O)N=Nc3c(O)[nH]c4ccccc34)ccc21	inconclusive [activator, single point]	–
COc1ccc(C(=O)CC(=O)c2ccc(C)cc2)c(O)c1	inconclusive [activator, partial curve]	–
O=C(Nc1ccccc1)c1cc2ccccc2c(=O)s1	active: 2.82 µM	–
O=C1c2cccc3cccc(c23)C(=O)N1Cc1ccco1	–	inactive: -5.69%
O=C(NCc1ccccn1)c1cc(-c2ccccc2)on1	inconclusive [activator, partial curve]	–
Cc1cc(C(=O)Nc2ccc3c(c2)OCCO3)c(C)o1	active: 3.16 µM	–
O=C(N/N=C/C(Br)=C\c1ccccc1)c1cccs1	active: 1.58 µM	–
Cc1cc(C(=O)COc2ccc(Cl)cc2Br)c(C)n1C	inconclusive [activator, single point]	–
Cn1c(NCc2cccs2)nc2ccccc21	inconclusive [activator, partial curve]	–
Cc1ccccc1C(=O)Nn1cnc2ccccc2c1=O	inconclusive [activator, partial curve]	–
O=c1[nH]c(/C=C/c2ccccn2)nc2ccccc12	active: 1.58 µM	–
CSc1ccc(C2c3[nH]c4ccccc4c3CCN2C(=O)c2cc(C)n(C)n2)cc1 (stereo not drawn)	inconclusive [activator, single point]	–
Cn1c(C(=O)NCC2CCCO2)cc2oc3ccccc3c21 (stereo not drawn)	active: 1.58 µM	–
CCN(c1ccccc1)S(=O)(=O)c1ccc(OC)c(NC(=O)CCc2nc3ccccc3c(=O)[nH]2)c1	–	inactive: -3.12%
CCOC(=O)c1ccc(N/C=C/C(=O)c2ccccc2)cc1	inconclusive [activator, partial curve]	–
CCC(=O)N1CCC(c2ccc(OC)cc2)=N1	inconclusive [activator, single point]	–
O=C(COC(=O)c1ccc(O)cc1O)c1ccc2c(c1)OCO2	–	inactive: 5.5%
O=C(NC(=S)Nc1ccc(Br)cn1)c1cccs1	inconclusive [activator, single point]	–
O=[n+]1cc(-c2cc3ccccc3o2)n([O-])c2c1CCCC2	inconclusive [activator, partial curve]	–

SMILES	Potency	activation, negative = inhibition
Cc1cc(/C=C2/C(=O)N(C)C(=S)N2C)c(C)n1C1CC1	active: 2 µM	–
CCCCC(=O)N1CCCC(c2nc(-c3cccc(OC)c3)no2)C1 (stereo not drawn)	inconclusive [activator, partial curve]	–
COc1cc(NC(C)=O)ccc1NC(=O)c1cc2ccccc2o1	inconclusive [activator, single point]	–
Clc1ccc(Cl)c(OCc2cc(-c3ccccc3Cl)on2)c1	inconclusive [activator, partial curve]	–
OCc1cc(Br)ccc1OCc1nc2ccccc2s1	active: 2.82 µM	–
C/C(=N\OCc1ccc(C#N)cc1)c1ccccc1	active: 3.16 µM	–
CC1(C)Cc2c(cnn2-c2ccc(F)cc2)C(NC(=O)CN2CCCCC2=O)C1 (stereo not drawn)	–	inactive: -8.54%
O=C(Cn1nnc(-c2ccccc2)n1)N1CCCCC1	inconclusive [activator, single point]	–
O=C(NC1=NCCS1)c1sc2ccccc2c1Cl	active: 1.12 µM	–
O=C(CSc1ncnc2sccc12)N1CCN(C(=O)c2cccs2)CC1	–	inactive: 0.66%
O=C(/C=C\c1ccco1)c1ccc(NC(=O)c2ccco2)cc1	inconclusive [activator, partial curve]	–
C/C(=N\Nc1cccc([N+](=O)[O-])c1)c1ccccc1O	inconclusive [activator, single point]	–
COc1ccc(NC(=S)NNc2ccc(C(=O)O)cc2)cc1	–	inactive: 7.23%
Cc1ccc(CN(C(=O)c2cc3ccccc3oc2=O)C2CCS(=O)(=O)C2)cc1 (stereo not drawn)	inconclusive [activator, single point]	–
O=C(Nc1ccc(Cl)cn1)Nc1ccccc1Cl	inconclusive [activator, single point]	–
N#Cc1c(NC(=S)NC(=O)c2ccccc2)sc2c1CCC2	inconclusive [activator, single point]	–
CC1CCC/C(=N\Nc2ccc(Cl)c(C(=O)O)c2)C1 (stereo not drawn)	inconclusive [activator, partial curve]	–
CCSc1ncc(/C=N/Nc2ccccc2)n1C	inconclusive [activator, single point]	–
O=C(CSc1nc2ncccc2[nH]1)c1ccc2c(c1)OCO2	inconclusive [activator, single point]	–
COCc1c(C(=O)Nc2ccc(Cl)cc2F)oc2ccccc12	inconclusive [activator, partial curve]	–
CCCCOc1ccc(-c2nnc(-c3ccco3)o2)cc1	active: 1.41 µM	–
COC(=O)c1ccc(NC(=O)Nc2ccccc2C)cc1	inconclusive [activator, partial curve]	–
C(=N\N1CCN(c2ccccc2)CC1)/c1ccccc1	inconclusive [activator, single point]	–
COc1ccc(-c2cc(C(=O)N3CCCCC3)no2)cc1OC	inconclusive [activator, partial curve]	–
